From PubChem BioAssay (Tox21)
Several values for one entry are separate records, joined by “and”; a condition that tells them apart may be missing. Equal values may be shown once. This list was built around the results that the source calls inconclusive (neither active nor inactive); the mix of calls is not that of the screen. For some of these results: A potency beside an inconclusive call is a rough fit, not a confirmed value. Activity calls are given as the source filed them. Calls come from the whole dose curve; as a rule, active = well fitted curve in the direction sought with a large enough effect in the repeat runs; inconclusive = weak or mixed curves; inactive = no such curve, though single readings can be large; an effect the other way counts as inactive or inconclusive.

Experiments:
[1] = Caspase-3/7 induction in HepG2 cells by small molecules, qHTS cell viability counter screen (AID 1346981); note: nearly all actives have a fitted effect of over 30% in size
In short: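 Fluorescence read-out of live-cell protease activity (CellTiter-Fluor) after 1 hr with reagent. This was measured in the same wells as the caspase-3/7 luminescence, on HepG2 cells exposed to DMSO-dissolved compounds for 16 hr at 37 C.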

[2] = target: Nuclear receptor subfamily 1 group I member 2 (Homo sapiens) (UniProt O75469); assay: Human pregnane X receptor (PXR) small molecule agonists, qHTS assay (AID 1346982); note: nearly all actives have a fitted effect of over 35% in size
In short: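 HepG2 PXR-Luc reporter line, 5% charcoal-stripped FBS; 5 hr pre-incubation, compound (DMSO) 24 hr at 37 C/5% CO2; ONE-Glo 30 min RT; luminescence read-out.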

[3] = target: Cytochrome P450 2C9 (Homo sapiens) (UniProt P11712); assay: Cytochrome P450 Family 2 Subfamily C Member 9 (CYP2C9) small molecule antagonists: luciferase reporter qHTS assay (AID 1671198); note: nearly all actives have a fitted effect of over 50% in size
Chain of UniProt P11712 (P11712 whole entry, looked up): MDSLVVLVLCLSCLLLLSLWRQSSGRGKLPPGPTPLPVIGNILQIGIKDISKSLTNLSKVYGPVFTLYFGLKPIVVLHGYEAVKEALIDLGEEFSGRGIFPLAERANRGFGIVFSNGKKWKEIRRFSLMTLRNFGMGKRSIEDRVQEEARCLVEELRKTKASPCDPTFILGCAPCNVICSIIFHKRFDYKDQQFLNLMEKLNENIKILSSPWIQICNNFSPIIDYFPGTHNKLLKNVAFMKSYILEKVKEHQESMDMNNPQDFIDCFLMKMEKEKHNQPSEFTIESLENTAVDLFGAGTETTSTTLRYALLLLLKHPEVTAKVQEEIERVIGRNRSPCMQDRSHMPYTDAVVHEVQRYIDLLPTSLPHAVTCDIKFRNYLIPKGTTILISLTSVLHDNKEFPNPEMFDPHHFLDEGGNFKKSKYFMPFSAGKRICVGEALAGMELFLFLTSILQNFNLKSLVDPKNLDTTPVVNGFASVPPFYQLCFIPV
In short: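 P450-Glo proluciferin substrate with CYP2C9 enzyme; 10 min RT preincubation, then NADPH regeneration 1 h at 37C; luciferin detection reagent 20 min RT, luminescence in relative luminescence units.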

[4] = target: Cytochrome P450 1A2 (Homo sapiens) (UniProt P05177); assay: Cytochrome P450 Family 1 Subfamily A Member 2 (CYP1A2) small molecule antagonists: luciferase reporter qHTS assay (AID 1671199); note: nearly all actives have a fitted effect of over 50% in size
Chain of UniProt P05177 (P05177 whole entry, looked up): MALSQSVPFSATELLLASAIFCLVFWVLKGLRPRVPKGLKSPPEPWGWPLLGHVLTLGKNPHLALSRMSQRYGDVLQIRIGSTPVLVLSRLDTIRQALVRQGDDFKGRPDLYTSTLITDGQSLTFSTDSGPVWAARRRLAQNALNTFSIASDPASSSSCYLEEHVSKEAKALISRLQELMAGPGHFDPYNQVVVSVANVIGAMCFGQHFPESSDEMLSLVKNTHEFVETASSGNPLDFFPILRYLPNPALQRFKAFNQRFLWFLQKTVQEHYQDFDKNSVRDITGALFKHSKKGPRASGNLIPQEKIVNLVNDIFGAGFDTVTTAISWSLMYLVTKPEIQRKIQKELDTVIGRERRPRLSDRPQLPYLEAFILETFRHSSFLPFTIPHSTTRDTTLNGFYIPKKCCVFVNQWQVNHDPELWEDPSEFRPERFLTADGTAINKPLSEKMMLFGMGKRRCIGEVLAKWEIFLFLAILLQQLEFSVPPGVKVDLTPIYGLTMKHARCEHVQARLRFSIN
In short: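 Luminescence readout (relative luminescence units) after luciferin detection reagent, 20 min RT. Preceded by 1 h room-temperature CYP1A2 reaction with NADPH regeneration solution following 10 min compound preincubation with enzyme and proluciferin substrate. Furafylline positive control.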

[5] = target: Voltage-gated inwardly rectifying potassium channel KCNH2 (Homo sapiens) (UniProt Q12809); assay: Human Ether-a-go-go-Related Gene (hERG) channel small molecule antagonists: fluorescence cell-based qHTS assay (AID 1671200); note: nearly all actives have a fitted effect of over 50% in size
Chain of UniProt Q12809 (Q12809 whole entry, looked up): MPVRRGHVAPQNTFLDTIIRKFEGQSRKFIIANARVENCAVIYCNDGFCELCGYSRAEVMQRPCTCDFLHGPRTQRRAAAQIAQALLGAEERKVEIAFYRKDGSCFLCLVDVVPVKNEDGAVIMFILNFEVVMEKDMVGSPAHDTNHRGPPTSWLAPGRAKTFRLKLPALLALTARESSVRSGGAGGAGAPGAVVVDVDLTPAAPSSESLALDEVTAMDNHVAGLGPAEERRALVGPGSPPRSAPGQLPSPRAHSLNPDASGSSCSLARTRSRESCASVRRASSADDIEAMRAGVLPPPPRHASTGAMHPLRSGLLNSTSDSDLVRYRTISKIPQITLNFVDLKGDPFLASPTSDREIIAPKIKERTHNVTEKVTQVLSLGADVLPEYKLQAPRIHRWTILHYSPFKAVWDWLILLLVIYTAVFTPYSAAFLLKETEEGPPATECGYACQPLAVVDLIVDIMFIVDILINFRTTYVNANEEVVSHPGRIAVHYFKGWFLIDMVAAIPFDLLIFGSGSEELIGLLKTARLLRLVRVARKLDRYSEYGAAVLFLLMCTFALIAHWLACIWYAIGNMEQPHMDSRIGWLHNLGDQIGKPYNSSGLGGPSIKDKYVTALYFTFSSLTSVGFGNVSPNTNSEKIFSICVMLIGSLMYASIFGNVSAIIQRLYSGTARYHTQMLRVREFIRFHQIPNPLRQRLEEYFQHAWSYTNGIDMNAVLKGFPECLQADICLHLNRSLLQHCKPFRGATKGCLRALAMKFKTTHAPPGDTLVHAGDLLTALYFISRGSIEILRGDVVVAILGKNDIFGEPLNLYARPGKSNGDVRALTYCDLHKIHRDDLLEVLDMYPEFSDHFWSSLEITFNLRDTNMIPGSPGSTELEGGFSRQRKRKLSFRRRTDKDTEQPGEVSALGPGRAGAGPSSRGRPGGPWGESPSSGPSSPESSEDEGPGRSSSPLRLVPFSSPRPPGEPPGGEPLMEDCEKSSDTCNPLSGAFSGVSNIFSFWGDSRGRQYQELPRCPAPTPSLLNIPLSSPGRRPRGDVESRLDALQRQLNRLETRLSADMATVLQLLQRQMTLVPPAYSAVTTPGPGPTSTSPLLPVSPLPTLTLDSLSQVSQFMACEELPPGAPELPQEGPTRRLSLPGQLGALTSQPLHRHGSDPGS
In short: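 Cell line hERG-U2OS; dye FluxOR II, 1 h RT dark; Tl+ stimulus; ex 480/em 540 nm, read each second for 2 min.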

[6] = target: Nuclear receptor subfamily 1 group I member 2 (Rattus norvegicus) (UniProt Q9R1A7); assay: Rat pregnane X receptor (rPXR) activation by small molecules, qHTS assay (AID 1346983); conditions: rPXR luciferase reporter cells, One-Glo luminescence, 24 h; max activation: active compounds read high; note: nearly all actives have a fitted effect of over 20% in size
Chain of UniProt Q9R1A7 (Q9R1A7 whole entry, looked up): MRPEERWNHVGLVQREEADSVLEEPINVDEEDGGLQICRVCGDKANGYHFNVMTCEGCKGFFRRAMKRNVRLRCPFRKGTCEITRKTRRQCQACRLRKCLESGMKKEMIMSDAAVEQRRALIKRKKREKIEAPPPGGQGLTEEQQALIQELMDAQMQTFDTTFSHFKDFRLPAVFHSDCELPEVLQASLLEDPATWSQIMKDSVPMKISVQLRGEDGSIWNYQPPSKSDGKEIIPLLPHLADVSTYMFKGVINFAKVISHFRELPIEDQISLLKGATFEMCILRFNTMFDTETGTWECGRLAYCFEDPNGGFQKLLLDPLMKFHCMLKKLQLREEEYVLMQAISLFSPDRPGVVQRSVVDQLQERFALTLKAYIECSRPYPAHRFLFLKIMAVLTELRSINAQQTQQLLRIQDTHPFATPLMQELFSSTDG
In short: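 Cell-based rPXR activation assay: rPXR cells, 2,000 per well, rested 5hr at 37 C, then exposed to compounds in DMSO for 24 hr at 37 C. Luciferase activity read by One-Glo luminescence after 30 min at room temperature.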

[7] = target: Nuclear receptor subfamily 1 group I member 2 (Homo sapiens) (UniProt O75469); assay: CYP3A4 induction through human pregnane X receptor (PXR) by small molecules, qHTS assay (AID 1346984); note: nearly all actives have a fitted effect of over 40% in size
In short: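 HepG2-derived DPX-2 line carrying PXR plus a CYP3A4-promoter luciferase reporter; cells plated 5 hr, compound-exposed 24 hr at 37C. CYP3A4 activity probed with 3uM (final) Luciferin-IPA for 3hr, then luciferase read after One-Glo.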

[8] = target: Nuclear receptor subfamily 1 group I member 2 (Homo sapiens) (UniProt O75469); assay: Human pregnane X receptor (PXR) activation by small molecules, qHTS assay (AID 1346985); note: nearly all actives have a fitted effect of over 40% in size
In short: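 DPX-2 cells (HepG2 co-transfected with a PXR response element and a CYP3A4-promoter luciferase construct) were seeded at 2,000 per well, rested 5 hr at 37C, then exposed to DMSO-dissolved compounds for 24 hr. Activation was read as luciferase luminescence.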

[9] = target: Cytochrome P450 2D6 (Homo sapiens) (UniProt P10635); assay: Cytochrome P450 Family 2 Subfamily D Member 6 (CYP2D6) small molecule antagonists: luciferase reporter qHTS assay (AID 1671196); note: nearly all actives have a fitted effect of over 50% in size
Chain of UniProt P10635 (P10635 whole entry, looked up): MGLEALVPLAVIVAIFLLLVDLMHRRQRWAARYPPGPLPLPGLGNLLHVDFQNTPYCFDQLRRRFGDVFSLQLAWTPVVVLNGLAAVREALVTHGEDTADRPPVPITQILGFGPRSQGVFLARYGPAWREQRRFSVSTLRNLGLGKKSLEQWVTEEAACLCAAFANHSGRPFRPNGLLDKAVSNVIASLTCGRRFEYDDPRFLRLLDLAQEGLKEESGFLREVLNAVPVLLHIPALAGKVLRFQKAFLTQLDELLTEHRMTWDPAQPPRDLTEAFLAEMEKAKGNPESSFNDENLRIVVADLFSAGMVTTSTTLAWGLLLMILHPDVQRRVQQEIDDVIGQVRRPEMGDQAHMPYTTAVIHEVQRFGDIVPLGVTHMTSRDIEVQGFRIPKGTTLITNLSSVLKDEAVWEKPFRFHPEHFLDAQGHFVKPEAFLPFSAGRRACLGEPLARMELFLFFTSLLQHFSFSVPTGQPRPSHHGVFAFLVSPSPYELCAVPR
In short: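 Luminogenic proluciferin substrate, CYP2D6 enzyme; 10 min RT preincubation with compound, NADPH regeneration system added, 1 h RT. Stop/detection reagent, 20 min RT, luminescence read (RLU). Signal proportional to CYP activity.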

[10] = target: Cytochrome P450 2C19 (Homo sapiens) (UniProt P33261); assay: Cytochrome P450 Family 2 Subfamily C Member 19 (CYP2C19) small molecule antagonists: luciferase reporter qHTS assay (AID 1671197); note: nearly all actives have a fitted effect of over 65% in size
Chain of UniProt P33261 (P33261 whole entry, looked up): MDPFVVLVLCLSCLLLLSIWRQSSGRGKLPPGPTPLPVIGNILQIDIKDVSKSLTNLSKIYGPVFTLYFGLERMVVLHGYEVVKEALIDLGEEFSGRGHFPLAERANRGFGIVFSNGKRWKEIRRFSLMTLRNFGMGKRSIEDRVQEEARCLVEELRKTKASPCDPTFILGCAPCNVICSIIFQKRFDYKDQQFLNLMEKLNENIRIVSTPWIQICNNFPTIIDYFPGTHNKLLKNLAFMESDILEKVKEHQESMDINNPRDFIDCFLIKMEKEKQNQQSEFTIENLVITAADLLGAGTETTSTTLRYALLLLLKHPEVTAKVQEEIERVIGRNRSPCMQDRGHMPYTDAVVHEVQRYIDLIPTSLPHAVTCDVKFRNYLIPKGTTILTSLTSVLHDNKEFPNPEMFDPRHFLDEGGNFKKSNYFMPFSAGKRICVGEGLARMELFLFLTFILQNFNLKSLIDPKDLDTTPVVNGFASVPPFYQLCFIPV
In short: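 Quantitative high-throughput screen of the Tox21 library using CYP2C19 with proluciferin substrate. Reaction: NADPH regeneration, 37C, 1 h, after 10 min compound preincubation at room temperature. Readout: luminescence.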

[11] = target: Cytochrome P450 3A4 (Homo sapiens) (UniProt P08684); assay: Cytochrome P450 Family 3 Subfamily A Member 4 (CYP3A4) small molecule antagonists: luciferase reporter qHTS assay (AID 1671201); note: nearly all actives have a fitted effect of over 50% in size
Chain of UniProt P08684 (P08684 whole entry, looked up): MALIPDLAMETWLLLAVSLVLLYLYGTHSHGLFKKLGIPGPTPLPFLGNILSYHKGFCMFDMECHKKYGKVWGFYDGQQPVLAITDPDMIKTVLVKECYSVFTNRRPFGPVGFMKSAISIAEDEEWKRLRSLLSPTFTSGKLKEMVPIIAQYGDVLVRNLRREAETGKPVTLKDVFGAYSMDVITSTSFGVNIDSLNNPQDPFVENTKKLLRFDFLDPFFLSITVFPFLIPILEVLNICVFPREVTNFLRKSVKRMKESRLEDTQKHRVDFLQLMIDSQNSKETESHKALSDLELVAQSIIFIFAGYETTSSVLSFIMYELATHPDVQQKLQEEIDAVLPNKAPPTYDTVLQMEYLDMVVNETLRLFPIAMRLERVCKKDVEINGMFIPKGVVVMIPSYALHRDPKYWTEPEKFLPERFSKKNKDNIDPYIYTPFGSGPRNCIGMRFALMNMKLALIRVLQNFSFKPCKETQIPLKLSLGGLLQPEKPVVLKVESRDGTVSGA
In short: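 Room-temperature assay throughout: 10 min compound–enzyme/substrate preincubation, 1 h reaction after NADPH regeneration solution, 20 min detection. Luciferin formed from proluciferin substrate is quantified by luminescence.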
Potency is the fitted concentration of half-maximal effect; tags give direction and shape of the fitted curve.

Compound: CCc1ccccc1O
- Potency [1]: inactive
- Potency [2]: inconclusive: 48.3 µM [activator, partial curve, poor fit] and inconclusive: 61.1 µM [activator, partial curve]
- Potency [3]: inconclusive: 56.4 µM [inhibitor, partial curve, poor fit]
- Potency [4]: inconclusive: 44.8 µM [inhibitor, partial curve]

Compound: CN1CCOCC1
- Potency [1]: inactive
- Potency [5]: inactive

Compound: O=C(O)CCN(C1(C(=O)NO)CCCC1)S(=O)(=O)c1ccc(Oc2ccc(F)cc2)cc1
- Potency [1]: inactive
- Potency [3]: inactive

Compound: CC1(C)O[C@@H]2C[C@H]3[C@@H]4CCC5=CC(=O)CC[C@]5(C)[C@@]4(F)[C@@H](O)C[C@]3(C)[C@]2(C(=O)CCl)O1
- Potency [1]: inconclusive: 0.0473 µM [rising, full curve, poor fit]
- Potency [6]: active: 1 µM
- Potency [7]: inconclusive: 1 µM [activator, full curve, poor fit]
- Potency [8]: active: 5.01 µM
- Potency [9]: inconclusive: 30.9 µM [inhibitor, partial curve]
- Potency [3]: active: 15.5 µM

Compound: O=C1Nc2cc(Cl)ccc2Oc2ccccc21
- Potency [1]: inconclusive: 33.5 µM [rising, partial curve, poor fit]
- Potency [3]: inconclusive: 11 µM [inhibitor, full curve, poor fit]

Compound: CN(C)c1ccc2nc3ccc(=[N+](C)C)cc-3sc2c1
- Potency [1]: active: 10.4 µM and active: 27.3 µM and active: 23.7 µM
- Potency [2]: inconclusive: 611 nM [activator, partial curve]
- Potency [8]: active: 3.16 µM

Compound: CC/C=C\CCOC(=O)c1ccccc1
- Potency [1]: inactive
- Potency [3]: inactive
- Potency [4]: inconclusive: 63.3 µM [inhibitor, partial curve]

Compound: CNc1ccc([N+](=O)[O-])cc1
- Potency [1]: active: 30.7 µM
- Potency [9]: inconclusive: 71.2 µM [inhibitor, partial curve]
- Potency [10]: active: 35.7 µM
- Potency [3]: inconclusive: 40 µM [inhibitor, partial curve]

Compound: Clc1cc(Cl)c(Cl)nc1Cl
- Potency [1]: inactive
- Potency [9]: inconclusive: 79.9 µM [inhibitor, single point]
- Potency [4]: inconclusive: 63.5 µM [inhibitor, partial curve]

Compound: N#Cc1ccccc1O
- Potency [1]: inactive
- Potency [9]: inactive
- Potency [10]: inactive
- Potency [4]: inactive

Compound: Cc1ccc2ccc3cccc4ccc1c2c34
- Potency [1]: inactive
- Potency [11]: active: 20 µM

Compound: COCCCOCCCOC
- Potency [1]: inactive
- Potency [10]: inactive

Compound: CCC(=O)O[C@]1(C(=O)SCF)[C@H](C)C[C@H]2[C@@H]3C[C@H](F)C4=CC(=O)C=C[C@]4(C)[C@@]3(F)[C@@H](O)C[C@@]21C
- Potency [1]: inactive
- Potency [6]: active: 1.58 µM

Compound: Cc1cc(C(=C2C=CC(=Nc3ccc(S(=O)(=O)O)cc3S(=O)(=O)O)C=C2)c2ccc(Nc3ccc(S(=O)(=O)O)cc3)cc2)ccc1N
- Potency [1]: inconclusive: 44.7 µM [cytotoxic, single point]
- Potency [9]: inconclusive: 29.2 µM [inhibitor, partial curve]
- Potency [10]: inconclusive: 51.9 µM [inhibitor, single point]
- Potency [3]: inconclusive: 51.9 µM [inhibitor, partial curve, poor fit]

Compound: CC(CCC(=O)O)(c1ccc(O)cc1)c1ccc(O)cc1
- Potency [1]: inconclusive: 27.3 µM [rising, partial curve]
- Potency [3]: inconclusive: 71.8 µM [inhibitor, partial curve] and inconclusive: 63.3 µM [inhibitor, partial curve]

Compound: Cc1ccc(-c2ccccc2)cc1
- Potency [1]: inactive
- Potency [5]: inconclusive: 43.6 µM [inhibitor, partial curve]

Compound: CCCCCCCCCCCO
- Potency [1]: inconclusive: 1.76 µM [cytotoxic, partial curve, poor fit]
- Potency [3]: inconclusive: 10.3 µM [inhibitor, full curve] and inconclusive: 44.8 µM [inhibitor, partial curve, poor fit]
- Potency [4]: inconclusive: 40.9 µM [inhibitor, partial curve, poor fit] and inconclusive: 31.7 µM [inhibitor, partial curve]

Compound: CC(=O)O[C@H](CC(=O)[O-])C[N+](C)(C)C
- Potency [1]: inactive
- Potency [5]: inactive

Compound: OCC(CO)(CO)COCC(CO)(CO)CO
- Potency [1]: inactive
- Potency [10]: inactive
- Potency [4]: inconclusive: 39.9 µM [inhibitor, partial curve]

Compound: C=CC(C)(CCC=C(C)C)OC(=O)/C=C/c1ccccc1 (stereo unspecified)
- Potency [1]: inactive
- Potency [11]: inconclusive: 35.6 µM [inhibitor, partial curve]

Compound: c1ccc(CNCCNCc2ccccc2)cc1
- Potency [1]: inactive
- Potency [9]: active: 0.776 µM
- Potency [4]: inconclusive: 25.7 µM [inhibitor, partial curve]
- Potency [5]: inconclusive: 23.9 µM [inhibitor, partial curve, poor fit]
